Measured values taken from the supplement of paper PMC4967469.
A lower IC50 marks a more sensitive line; a fit beyond the top or the lowest dose is shown as a bound at that dose. For AUC the same curve is integrated over the 256-fold range of doses and scaled to a fraction; values near 1 show little effect. The top dose, if marked as inferred, was derived from the fitted curves, not read from the paper. For some assays here: An entry number marks a drug with two screens in the source, which often give different values.

Key:
Assay in all cases: Viability of human cancer cell lines after 72 h of drug (GDSC screen)
BIRB 0796 = compound: Cc1ccc(-n2nc(C(C)(C)C)cc2NC(=O)Nc2ccc(OCCN3CCOCC3)c3ccccc23)cc1 [BIRB 0796]; conditions: top dose 10 µM; top dose inferred
Protocol: (§1)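 Human cancer cell lines in 384-well plates, medium with 10% serum, drug for 72 h over a 256-fold dose range (nine 2-fold or five 4-fold steps up to the top dose). Adherent lines were fixed and stained with the nucleic acid dye Syto60, suspension lines read with resazurin; signal relative to control wells, capped at 0 and 100%. One two-parameter sigmoid per drug and line, fitted in a mixed model over all curves with the slope shared within a line.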

VX-702 = compound: NC(=O)c1ccc(N(C(N)=O)c2c(F)cccc2F)nc1-c1ccc(F)cc1F [VX-702]; conditions: top dose 2 µM; top dose inferred
Protocol: as §1

Olaparib = compound: O=C(c1cc(Cc2n[nH]c(=O)c3ccccc23)ccc1F)N1CCN(C(=O)C2CC2)CC1 [Olaparib]
Protocol: as §1

BMS-536924 = compound: Cc1cc(N2CCOCC2)cc2[nH]c(-c3c(NC[C@@H](O)c4cccc(Cl)c4)cc[nH]c3=O)nc12 [BMS-536924]; conditions: top dose 4 µM; screen: GDSC drug entry 1091; top dose inferred
Protocol: as §1

Wee1 inhibitor 681640 = compound: O=C1NC(=O)c2c1c(-c1ccccc1Cl)cc1[nH]c3ccc(O)cc3c21 [Wee1 inhibitor 681640]; conditions: top dose 2 µM; top dose inferred
Protocol: as §1

SB-525334 = compound: Cc1cccc(-c2[nH]c(C(C)(C)C)nc2-c2ccc3nccnc3c2)n1 [SB-525334]; conditions: top dose 20 µM; top dose inferred
Protocol: as §1

Shikonin = compound: CC(C)=CC[C@@H](O)C1=CC(=O)c2c(O)ccc(O)c2C1=O [Shikonin]; conditions: top dose 16 µM; top dose inferred
Protocol: as §1

[1] = top dose 5 µM, screen: GDSC drug entry 1017, top dose inferred
[2] = top dose 10 µM, screen: GDSC drug entry 1495

Cell Line	AUC (BIRB 0796)	IC50 (BIRB 0796) [µM]	AUC (VX-702)	IC50 (VX-702) [nM]	AUC (Olaparib; [1])	IC50 (Olaparib; [1]) [µM]	AUC (Olaparib; [2])	IC50 (Olaparib; [2]) [µM]	AUC (BMS-536924)	IC50 (BMS-536924) [µM]	AUC (Wee1 inhibitor 681640)	IC50 (Wee1 inhibitor 681640) [nM]	AUC (SB-525334)	IC50 (SB-525334) [µM]	AUC (Shikonin)	IC50 (Shikonin) [nM]
MOLM-16 (acute myeloid leukaemia, suspension)	0.981	> 10	0.876	1580	0.933	> 5	0.954	> 10	0.834	2.17	0.786	753	–	–	–	–
MOLT-16 (T-cell lymphoblastic leukaemia, suspension)	0.992	> 10	0.97	> 2000	0.909	4.46	0.816	4.2	0.986	> 4	0.787	686	–	–	–	–
NCI-H146 (small cell lung carcinoma, suspension)	0.994	> 10	0.942	> 2000	0.975	> 5	0.981	> 10	0.993	> 4	0.981	> 2000	–	–	–	–
NCI-H522 (lung adenocarcinoma, adherent)	0.968	> 10	–	–	–	–	0.969	> 10	0.969	> 4	0.934	> 2000	0.961	> 20	0.378	432
NCI-H835 (lung carcinoid, suspension)	0.989	> 10	0.983	> 2000	0.987	> 5	0.969	> 10	0.968	> 4	0.964	> 2000	–	–	–	–
NCI-H1105 (small cell lung carcinoma, suspension)	0.982	> 10	0.981	> 2000	0.949	> 5	0.927	> 10	0.977	> 4	0.974	> 2000	–	–	–	–
NCI-H1341 (small cell lung carcinoma, suspension)	0.991	> 10	0.992	> 2000	0.991	> 5	0.974	> 10	0.799	1.6	0.992	> 2000	–	–	–	–
NCI-H2085 (lung adenocarcinoma, adherent)	0.946	> 10	–	–	–	–	0.944	> 10	0.976	> 4	0.906	> 2000	0.983	> 20	0.321	301
NUGC-3 (stomach, adherent)	0.963	> 10	–	–	–	–	0.871	> 10	0.962	> 4	0.906	> 2000	0.961	> 20	0.443	687
OAW-28 (ovary, adherent)	0.954	> 10	–	–	–	–	0.868	> 10	0.919	> 4	0.879	> 2000	0.855	> 20	0.567	1600
PANC-10-05 (pancreas, adherent)	0.973	> 10	–	–	–	–	0.954	> 10	0.899	> 4	0.958	> 2000	0.977	> 20	0.383	434
RCH-ACV (B-cell leukaemia, suspension)	0.973	> 10	0.909	1940	0.868	3.27	0.868	6.54	0.901	3.57	0.952	> 2000	–	–	–	–
RERF-GC-1B (stomach, adherent)	0.983	> 10	–	–	–	–	0.923	> 10	0.736	1.29	0.969	> 2000	0.844	16.9	0.87	> 16000
RH-18 (rhabdomyosarcoma, adherent)	0.981	> 10	0.976	> 2000	0.976	> 5	0.964	> 10	0.913	> 4	0.975	> 2000	–	–	–	–
SK-MEL-31 (melanoma, adherent)	0.913	> 10	0.985	> 2000	0.985	> 5	0.959	> 10	0.965	> 4	0.983	> 2000	–	–	–	–
SUP-B8 (B-cell leukaemia, suspension)	0.988	> 10	0.989	> 2000	0.987	> 5	0.966	> 10	0.986	> 4	0.861	1670	–	–	–	–
SW900 (lung squamous cell carcinoma, adherent)	0.982	> 10	–	–	–	–	0.933	> 10	0.9	> 4	0.91	> 2000	0.944	> 20	0.482	888
Saos-2 (osteosarcoma, adherent)	0.92	> 10	–	–	0.981	> 5	0.925	> 10	0.708	1.25	0.938	> 2000	0.981	> 20	0.617	2410
TC-YIK (cervix, suspension)	0.98	> 10	0.99	> 2000	0.975	> 5	0.922	> 10	0.845	2.33	0.987	> 2000	–	–	–	–
TCCSUP (bladder, adherent)	0.985	> 10	–	–	–	–	0.909	> 10	0.948	> 4	0.935	> 2000	0.976	> 20	0.397	502
U031 (kidney, adherent)	0.985	> 10	–	–	–	–	0.725	2.79	0.943	> 4	0.936	> 2000	0.983	> 20	0.416	583
